Measurements published in paper PMC12040169 (PLOS Biology, 2025).
The other results are listed elsewhere or left out.

System: T1, C. trachomatis L2/434/Bu expressing GFP (CTL2-GFP)
T1 construct: L2/434/Bu GFP intracellular growth in HeLa cells
Parameters: species or system HeLa; C. trachomatis total inclusion area by high-content imaging, normalised to DMSO
Details: total inclusion area; 28.5 h, 10 µM; inhibitor
Outline: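 High-content images of fixed, Hoechst-stained infected cultures supply inclusion area and count (growth) plus nuclei number (viability), complementing bulk GFP/resorufin fluorescence. MIC determination is unchanged from the primary assay.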

SMILES	% of control remaining
O=C(c1ccc2cc[nH]c2c1)N1CCN(CC2CCOC2)CC1 (stereo not drawn) [CBK305541]	61.4713
CCCn1c(=N)n(CCOc2cccc(C)c2)c2ccccc21 [CBK264746B]	82.5259
C=C(C)Cn1c(SCC(C)C)nnc1-c1ccccc1C(=O)NC(C)C [CBK200096]	86.27
O=C(O)CC(C(=O)N1CCOCC1)N1CCCCC1 (stereo not drawn) [CBK287074]	88.7519
COC(=O)c1ccc2c(=O)n(CCc3ccc(S(N)(=O)=O)cc3)c(=S)[nH]c2c1 [CBK268238]	75.0185
O=C(CSc1nnc(-c2ccccc2)c(-c2ccccc2)n1)Nc1ccc([N+](=O)[O-])cc1 [CBK263406]	79.5455
CCN1CCN(c2ccc(C(=O)OC)cc2NC(=O)c2ccccc2C)CC1 [CBK269902]	79.5478
COc1ccccc1CNC(=O)c1ccc(Cl)c(S(=O)(=O)N2CCOCC2)c1 [CBK267060]	112.798
CC1=C[C@@H](CNS(C)(=O)=O)[C@H](C(C)C)C[C@H]1Cc1nnc(-c2ccccc2F)o1 [CBK289226]	92.9684
COc1cc(NC(=O)c2cc([N+](=O)[O-])ccc2N2CCN(C)CC2)c2ncccc2c1 [CBK263034]	94.0603
O=C1CC2(CCN(C(=O)c3ccc4cc[nH]c4c3)CC2)Oc2ccc(CN3CCOCC3)cc21 [CBK169469]	122.671
COc1cc(OC)c(NC(=O)c2c(-c3ccccc3)noc2C)cc1Cl [CBK268167]	84.7159
Cc1nc(C)c(C(=O)Nc2ccc3c(c2)CN(Cc2ccccc2)C3)o1 [CBK281835]	85.6737
O=C1NCCCC12CCN(Cc1ccc(F)cc1)CC2 [CBK285345]	81.6055
COc1ccc(-c2ccnc3[nH]c(=O)ccc23)cc1C [CBK073726]	113.601
CC(C)(C)C(=O)N[C@H]1CO[C@H]2[C@@H]1OC[C@@H]2Nc1nccc(C2CCCC2)n1 [CBK289530]	99.1292
Cc1nc(C)n(CC(=O)N[C@H]2C3CCCCC3[C@@H]2c2ccccc2)n1 (stereo partly drawn) [CBK285128]	94.114
CSc1ncc(CNC(=O)CC2CCc3ccccc32)n1C (stereo not drawn) [CBK307450]	70.2802
COc1cc(CN2CCC3(CC2)CN(S(C)(=O)=O)c2ccccc23)cc(OC)c1OC [CBK126669]	110.186
CC(C)(C)c1ccc(S(=O)(=O)N2CCNC(=O)C2)cc1 [CBK051238]	92.0125
O=S1(=O)N=C(N2CCN(Cc3ccc4c(c3)OCO4)CC2)c2ccccc21 [CBK266064]	75.8817
O=C(O)Cn1cc(C(C(=O)O)N2CCN(c3ccccc3)CC2)c2ccccc21 (stereo not drawn) [CBK286625]	97.1376
Cc1ccnc(Nc2nc3ccccc3o2)n1 [CBK022772]	81.7183
CC(C)(C)c1cc(C(c2ccccc2O)N2CCOCC2)cc(C(C)(C)C)c1O (stereo not drawn) [CBK262998]	48.5961
Cc1ccc(C)c2c1CCCC2N1CCC(NS(C)(=O)=O)CC1 (stereo not drawn) [CBK304038]	50.2039
c1csc(CN2CCC(c3cc4nccnc4[nH]3)CC2)c1 [CBK281520]	111.877

SMILES	% of control remaining
CC(=O)Nc1ccccc1-c1nc2ccccc2o1 [CBK287568]	114.354
CN(CCN1CCCCC1)C(=O)c1cc2ccc(N(C)C)cc2[nH]1 [CBK281830]	118.205
Cc1ccc(-c2cc(C(=O)N(C)CC3(C)COC3)[nH]n2)cc1 [CBK281717]	117.949
COc1ccc(C(=O)N2CCC3(CCCN(C(=O)c4cscn4)C3)C2)cc1OC (stereo not drawn) [CBK131659]	72.5192
O=C(O)CSc1nc(O)c2c(-c3ccccc3)csc2n1 [CBK268067]	117.908
Cc1ccc(C2(O)CCN(Cc3c(C)nc4sccn34)CC2)cc1 [CBK282734]	103.51
O=C(NC(c1ccc(-c2ccccc2)cc1)c1cnccn1)C1CCN(C/C=C/c2ccccc2)CC1 (stereo not drawn) [CBK147984]	82.3731
Cc1ccc(NC(=O)COc2ccccc2/C=C/C(=O)O)cc1C [CBK287026]	108.695
COc1ccc(C)cc1N1CCCN(c2cc(C)ccc2OC)C1=O [CBK006937]	9.427
COc1cccc2sc(NC(=O)c3ccc4ncsc4c3)nc12 [CBK287365]	140.648
S=C1C=C(c2ccccc2)Nc2ccccc2N1 [CBK288438]	66.1636
CCNC(=O)c1ccc(-c2ccc(C(=O)N(C)C)cc2)nc1 [CBK158361]	95.9023
COc1ccc(Cl)cc1NC(=O)CCN1CCN(C)CC1 [CBK278177C]	111.223
CCCCn1c(SCCC(=O)Nc2ccccc2C(=O)c2ccccc2)n[nH]c1=O [CBK296693]	123.079
Cc1cc(C)cc(NC(=O)c2ccccc2NS(=O)(=O)c2cccc(Cl)c2)c1 [CBK113887]	88.8931
CCN1CCN(c2ccc(NC(=O)c3ccc(OCc4ccccc4)cc3)cc2Cl)CC1 [CBK266683]	98.3978
CC(C)(C)NC(=O)Cn1cncc1-c1ccc2c(c1)CC(C)(C)O2 [CBK281980]	97.0655
Fc1ccc(-c2cccc(Nc3ccc(Oc4ccccc4)cc3)n2)cc1Cl [CBK037699]	103.048
O=C(O)c1ccccc1CSc1ccccn1 [CBK270213]	112.315
O=C(c1cccc(-c2cc3ccccc3oc2=O)c1)N1CCN(c2ccc([N+](=O)[O-])cc2Cl)CC1 [CBK269704]	64.7342
O=C(CN1CCC2(CC1)CN(C(=O)CO)c1ccccc12)Nc1ccc(F)c(Cl)c1 [CBK131509]	73.3321
C[C@H](Nc1nc(-c2cccc(-c3ccccc3)c2)cnc1N)c1ccccc1 [CBK063752]	95.6442
CC1CCN(Cc2ccc(-c3ccc(CC(=O)NCCc4ccc(O)cc4)cn3)cc2)CC1 [CBK158384]	76.6425
Cc1cccc2c3c([nH]c12)C1(CCN(CCCC#N)CC1)NCC3 [CBK039818]	86.612
Cc1cc(/C=C2/NC(=S)NC2=O)c(C)n1-c1ccc(Sc2ccc([N+](=O)[O-])cc2)cc1 [CBK263883]	109.41
O=C(CC(=O)Nc1c(Cl)cccc1C(F)(F)F)Nc1c(Cl)cccc1C(F)(F)F [CBK263148]	90.9031

SMILES	% of control remaining
COc1ccc(C2(C)NC(=O)N(CC(=O)Nc3ccc(NC(C)=O)cc3)C2=O)cc1 (stereo not drawn) [CBK295182]	102.74
Nc1ncc(-c2ccc(Cl)cc2)c(C2CCCN(C(=O)C3CCCC3)C2)n1 (stereo not drawn) [CBK285571]	123.873
Cn1c(COc2ccccc2)nnc1SCc1nnc(-c2ccccc2)o1 [CBK269628]	95.0895
Nc1nc(Cc2ccc(F)cc2)no1 [CBK028717]	65.8739
O=C(Nc1cccc2cc[nH]c12)c1cccc(F)c1Cl [CBK160074]	71.5834
O=C(Cn1ccnc1)NC(c1ccc(Cl)cc1)c1cccnc1 (stereo not drawn) [CBK281481]	84.8894
N=c1c2c(-c3ccccc3)c(-c3ccccc3)n(Cc3ccccc3)c2ncn1CCN1CCOCC1 [CBK268537]	37.7013
CN1C[C@@H](C(=O)N(C)C)[C@@]2(CCc3ccccc3C(=O)N2)C1 [CBK284792]	109.546
Cc1nn(Cc2ccc(Cl)cc2)c(C)c1NC(=O)CSc1nc(-c2ccc(F)cc2)cc(C(F)(F)F)n1 [CBK266160]	86.8262
CC1(CNC(=O)c2ccccc2Cn2cccn2)COC1 [CBK281750]	105.562
CN(C)c1ccc(CC(=O)NC2Cc3ccccc3C2)cc1 [CBK200360]	107.496
CCCNC(=O)c1cc(C2CCCN(Cc3ccc(F)cc3)C2)no1 (stereo not drawn) [CBK283387]	91.2555
O=C1COc2ccccc2C/C=C/CC2(CCN(C(=O)c3c[nH]cn3)CC2)C(=O)NCCN1 [CBK291990]	110.186
CCN(Cc1cncn1C)C(CC1CCCCC1)c1ccccc1 (stereo not drawn) [CBK066815T]	83.4589
c1csc(CN2CCC(n3cnc4cccnc43)CC2)c1 [CBK283968]	104.078
Cc1ccc(-n2ncc3c2NC(=O)N2CCCN=C32)cc1 [CBK284416]	98.3567
O=c1c(Cc2ccc(Cl)cc2)c(O)ccn1Cc1ccncc1 [CBK291161]	108.407
COc1cc(NC(=O)c2ccc3c(c2)C(=O)N(Cc2cccnc2)C3=O)c(C(=O)O)cc1OC [CBK266802]	106.594
O=C(CCSc1ccc(Cl)cc1)NCCN1CCOCC1 [CBK269352]	93.2736
COc1cccc(C(=O)N2CCC(Cc3cccc(-c4cccs4)c3)(C(N)=O)CC2)c1 [CBK285781]	78.6698
COc1cc(F)cc(OC2CCNCC2)c1NC(=O)C1(c2ccccc2)CCCCC1 [CBK050241T]	82.5254
CCOC(=O)c1c(CSc2ccc(Cl)cc2)n(C)c2cc(Br)c(O)c(CN(C)C)c12 [CBK217489C]	76.9079
O=C(Nc1cccnc1)c1cccnc1C(=O)O [CBK269663]	101.203
CCNC(=O)N1CC2(CCN(CC(=O)c3ccsc3)CC2)c2ccccc21 [CBK144601T]	80.828
CC1(C(=O)NC2CCN(Cc3cccc(F)c3)CC2)CCCO1 (stereo not drawn) [CBK282658]	136.712
O=C(O)C[C@@H]1CCN(C(=O)C2CCCCC2)C[C@@H]1CC1=NCCc2ccccc21 [CBK289158]	93.2345
